# Measured values taken from article PMC4336329 (PLoS ONE, 2015).
# Among all 310,000 compounds or so, about 2,200 (0.71%) showed an effect of 50% or more. The effect is printed as a negative number. The list shows a part of the results.
# Biological target: human ether-à-go-go-related gene (hERG) potassium channel (human, UniProt Q12809)
# Assay: primary screen, population patch clamp on CHO cells stably expressing hERG
# human ether-à-go-go-related gene (hERG) potassium channel, sequence (Q12809 whole entry, looked up): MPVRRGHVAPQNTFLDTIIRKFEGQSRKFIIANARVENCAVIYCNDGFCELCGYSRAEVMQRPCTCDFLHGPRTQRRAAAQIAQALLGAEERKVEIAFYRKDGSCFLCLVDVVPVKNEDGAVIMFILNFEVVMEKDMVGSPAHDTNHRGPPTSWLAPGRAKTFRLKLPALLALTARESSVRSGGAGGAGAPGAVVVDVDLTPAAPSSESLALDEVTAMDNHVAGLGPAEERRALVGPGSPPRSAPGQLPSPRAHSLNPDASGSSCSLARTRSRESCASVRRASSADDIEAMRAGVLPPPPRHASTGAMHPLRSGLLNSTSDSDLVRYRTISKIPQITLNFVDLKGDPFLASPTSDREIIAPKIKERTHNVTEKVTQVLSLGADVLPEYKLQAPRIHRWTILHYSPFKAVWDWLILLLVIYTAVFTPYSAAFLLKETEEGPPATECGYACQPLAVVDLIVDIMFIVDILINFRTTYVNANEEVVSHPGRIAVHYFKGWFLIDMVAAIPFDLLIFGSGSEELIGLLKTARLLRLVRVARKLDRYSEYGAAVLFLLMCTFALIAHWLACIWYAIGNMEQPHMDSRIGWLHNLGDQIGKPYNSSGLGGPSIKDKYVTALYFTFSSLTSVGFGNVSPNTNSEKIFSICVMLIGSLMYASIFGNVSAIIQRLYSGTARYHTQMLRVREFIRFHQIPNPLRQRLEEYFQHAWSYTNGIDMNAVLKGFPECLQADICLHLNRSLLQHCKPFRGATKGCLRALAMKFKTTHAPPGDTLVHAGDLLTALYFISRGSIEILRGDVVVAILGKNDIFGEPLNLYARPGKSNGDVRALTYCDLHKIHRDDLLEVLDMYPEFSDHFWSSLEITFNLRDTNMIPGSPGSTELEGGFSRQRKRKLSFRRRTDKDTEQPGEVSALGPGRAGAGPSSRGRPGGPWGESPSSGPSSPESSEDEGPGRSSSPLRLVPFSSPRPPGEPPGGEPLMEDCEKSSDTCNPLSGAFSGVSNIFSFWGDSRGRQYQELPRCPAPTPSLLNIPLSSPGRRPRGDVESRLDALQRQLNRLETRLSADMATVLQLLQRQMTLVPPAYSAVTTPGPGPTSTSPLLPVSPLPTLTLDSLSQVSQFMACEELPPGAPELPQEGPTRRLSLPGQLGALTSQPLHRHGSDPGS
row,SMILES,"hERG current change (%, negative = inhibition) at 1uM"
1,COC(=O)C(NC(C)=O)(Nc1nc2ccc(C)cc2s1)C(F)(F)F (centres unmarked),7.94%
2,CCOC(=O)c1ccc(NC(C)=O)c([N+](=O)[O-])c1,11.3%
3,O=C(NCc1ccccc1)c1n[nH]nc1-c1ccccc1O,1.63%
4,O=C(NCc1ccccc1)C(c1cccnc1)N(C(=O)c1csnn1)c1ccccc1 (centres unmarked),10.7%
5,COC(=O)c1ccccc1NC(=O)N1CCN(C/C=C/c2ccccc2)CC1,-0.0462%
6,O=C(COC(=O)c1cc([N+](=O)[O-])ccc1N1CCOCC1)NCc1ccc(F)cc1,-19.6%
7,Nc1nc2ccc(C(=O)NCCOC(=O)C3CCCCC3)cc2s1,8.34%
8,COc1ccccc1N1CCN(C(=O)c2cc(C(=O)N3CCN(c4ccccc4OC)CC3)cc([N+](=O)[O-])c2)CC1,15%
9,O=C(COc1ccc(-c2nnco2)cc1)Nc1c(F)cccc1F,14.1%
10,CN(CC(=O)Nc1ccc(F)cc1)C(=O)COc1ncnc2ccccc12,-4.57%
11,OCCn1c(Cl)nc2ccccc21,12.8%
12,Cc1c(C#N)c2ccccc2n1CCOc1ccccc1F,6.79%
13,COC(=O)C[C@H]1c2cc(C(F)(F)F)ccc2S(=O)(=O)N1C1CCCC1,-12%
14,COc1ccc(CCNC(=O)C2CCCN2S(=O)(=O)c2ccc(F)cc2)cc1OC (centres unmarked),7.36%
15,CCOC(=O)CNC(=O)c1ccc(Cl)s1,3.34%
16,CSc1ccc(CCNC(=O)Cn2ncc3c([nH]c4ccccc43)c2=O)cc1,17.1%
17,c1cc2c(cc1CCNC1C3CC4CC(C3)CC1C4)OCO2 (centres unmarked),5.84%
18,O=C(O)CCc1nc(-c2ccccc2)c(-c2ccccc2)o1,-1.95%
19,Cc1cccc(N(CC(=O)NCCSc2ccccn2)S(=O)(=O)c2ccccc2)c1,2.41%
20,Cc1cccc(N2CCN(S(C)(=O)=O)CC2)c1C,17.1%
21,COc1ccc(OCCc2nnc(N)s2)cc1,0.609%
22,CC(=O)c1cc2ccccc2oc1=O,-2.36%
23,O=C(CCCNC(=O)c1ccc(Cl)cc1)Nc1ncccc1O,14.1%

row,SMILES,"hERG current change (%, negative = inhibition) at 1uM"
1,CC(=O)c1ccc(N2CCN(C(=O)c3cc4c(C)nc5ccccc5c4o3)CC2)cc1,3.6%
2,CN(c1ccc(C(=O)Nc2cccnc2)cc1)S(=O)(=O)c1ccc(Cl)cc1,15.7%
3,Cc1n[nH]c(=S)n1/N=C/c1ccc(OCc2ccc(Cl)cc2)cc1,1.61%
4,CCN(C(=O)c1coc(=O)c2ccccc12)c1cc(OC)ccc1OC,7.68%
5,COc1ccccc1N1CCN(/N=C(\C)c2ccccc2O)CC1,6.43%
6,COc1ccccc1Nc1nc(-c2ccc3c(c2)NC(=O)CO3)cs1,16%
7,CCOC(=O)c1cccc(NC(=O)N2CCOCC2)c1,8.16%
8,CCOC(=O)c1csc(NC(=O)c2cccs2)n1,10.9%
9,O=C(NCCCO)C(=O)NCC1OCCCN1S(=O)(=O)c1cccs1 (centres unmarked),0.615%
10,O=C(O)C1C2C=CC(C2)C1C(=O)NCc1ccoc1 (centres unmarked),14.3%
11,COc1ccc(S(=O)(=O)N/N=C(/C)c2ccco2)cc1,4.78%
12,CC(C)[C@H](NC(=O)NC1CCCc2ccccc21)C(=O)O (some centres unmarked),-6.68%
13,C/C(N)=C(/C#N)C(=O)COC(=O)C1CSC2(c3ccc(F)cc3)CCC(=O)N12 (centres unmarked),16.6%
14,CC(C)(C)NC(=O)C1Cc2ccccc2CN1C(=O)Nc1ccccc1Cl (centres unmarked),7%
15,O=C1CCCN2N=C(SCC(=O)Nc3ccc(Cl)cc3)SC2=N1,5.53%
16,O=C(CN1CCc2ccccc21)NCc1ccccc1Cl,10.1%
17,O=C(NCCCn1ccnc1)C(=O)NCC(c1cccnc1)N1CCN(c2ccccc2)CC1 (centres unmarked),7.3%
18,CN(C)c1cc[n+](CC(=O)c2ccc(OC(F)F)cc2)cc1.[Br-],4.22%
19,CCOC(=O)C1=C(CC)Nc2ccccc2N/C1=N\S(=O)(=O)c1ccc2ccccc2c1,7.83%
20,CC(=O)Oc1ccc(C(=O)Nc2ccc3c(c2)OCCO3)cc1,19.4%
21,O=C1C(=O)N(CCCN2CCOCC2)C(c2ccc([N+](=O)[O-])cc2)/C1=C(/O)c1ccc2c(c1)OCO2 (centres unmarked),14.2%
22,COc1ccc(C=O)cc1COc1ccc([N+](=O)[O-])c(C)c1,21%
23,C/C(=N/n1cnnc1)c1cccnc1,5.85%

row,SMILES,"hERG current change (%, negative = inhibition) at 1uM"
1,O=C(Nc1cccnc1)Nc1ccc(F)c(Cl)c1,-11.8%
2,O=C(Nc1ccccc1C(=O)N1CCCCC1)c1ccccc1C(F)(F)F,13.5%
3,Cc1onc(-c2ccccc2)c1C(=O)NC(=S)NNC(=O)c1ccc(O)cc1O,11.9%
4,COc1ccc2c(c1)c1nc3ccccc3nc1n2CC(=O)OC(C)C,15.3%
5,Cc1ccc(Oc2ccc3c(c2)C(=O)N(c2ccc(S(=O)(=O)Nc4nccs4)cc2)C3=O)cc1,8.57%
6,O=C(CSc1nc2ccccc2n1S(=O)(=O)c1ccccc1)N1CCCCC1,7.93%
7,Cc1ccc(-c2cc3nn(-c4ccccc4)c(N)c3c(=O)o2)cc1,5.78%
8,C#CCOCCOCCOCCNc1nc(N2CCN(C(=O)Cn3cc(CCCC[NH3+])nn3)CC2)nc(N2CCN(C(=O)Cn3cc(CCC[NH+]=C(N)N)nn3)CC2)n1.[Cl-],9.79%
9,CCOC(=O)c1ccccc1NC(=O)CN(c1ccccc1)S(=O)(=O)N(C)C,11.7%
10,CCN(CC)S(=O)(=O)c1cccc(-c2n[nH]c(=S)n2/N=C/c2ccc(C(=O)OC)cc2)c1,4.5%
11,Cc1ccc(/C=C2/SC(=S)N(CC(=O)Nc3ncc(Cc4ccc(C)cc4)s3)C2=O)cc1,10%
12,CCCC(c1nnnn1CS(=O)(=O)c1ccc(C)cc1)N1CCN(C2CCCC2)CC1.Cl (centres unmarked),-0.34%
13,CCOc1ccc(-n2c(=O)c3c4c(sc3n(CC(=O)NCCCOC)c2=O)CCCCC4)cc1,4.58%
14,COc1ccc(Br)cc1C(=O)NC(=S)Nc1ccc2[nH]c(=O)[nH]c2c1,14.9%
15,CS(=O)(=O)N1CCC(C(=O)NCCc2ccccc2)CC1,-0.504%
16,CCOC(=O)c1ccc(Oc2cc(C)nc(Cl)n2)cc1,6.94%
17,CN(C)C(=O)C1Cc2ccccc2CN1S(=O)(=O)c1cccs1 (centres unmarked),4.38%
18,c1ccc2sc(C3CCNCC3)nc2c1,8.12%
19,O=P(Cc1nnco1)(c1ccccc1)c1ccccc1,15.7%
20,COc1cc(C2C3C(=O)N(c4ccccc4)C(=O)C3ON2c2ccccc2)ccc1O (centres unmarked),14.7%
21,CN1CCCCc2c1nc1ccccc1c2N.O=C(O)c1cncc(Br)c1,-79.7%
22,O=C(O)CCC(=O)N1CCN(c2nc(-c3ccccc3Cl)c3cc(Br)ccc3n2)CC1,3.67%
23,CCS(=O)(=O)NCC(c1cccnc1)N1CCN(c2ccc(OC)cc2)CC1 (centres unmarked),-3.31%

row,SMILES,"hERG current change (%, negative = inhibition) at 1uM"
1,O=C(COC(=O)c1nc(Cl)ccc1Cl)NCc1cccs1,1.48%
2,COc1ccc(C(c2nnnn2C2CCCC2)N2CCN(C3CCCC3)CC2)cc1OC.Cl (centres unmarked),7.47%
3,C=CCNC1=C(Cl)C(=O)c2ccccc2C1=O,8.37%
4,Cc1ccc(C(=O)NC(=S)NCC2CCCO2)cc1 (centres unmarked),6.53%
5,CC(=O)c1cccc(NC(=O)C2CC(=O)N(Cc3ccccc3)C2)c1 (centres unmarked),12.2%
6,O=C(CSc1nc2ccccc2o1)N/N=C/c1ccc(O)c(O)c1,3.6%
7,Cc1ccc(NC(=O)CSCc2ccco2)cc1,14.6%
8,N#Cc1c(SCc2ccccc2)sc(C(=O)c2ccccc2)c1N,10.8%
9,COC(=O)c1cc(OC)c(OC)c(OC)c1NC(=O)c1ccc(S(=O)(=O)N(C)C)cc1,5.04%
10,CC(=O)c1ccc(Cl)c(Cl)c1Cl,19.1%
11,CCc1nc(Cl)c(C#N)c2c1CCCC2,7.07%
12,Cc1ccc(-n2nc3c([n+]2[O-])CCc2nonc2-3)cc1,17.7%
13,CCN1CCN(C(=O)C2=CC(c3ccc(OC)cc3)=NS(=O)(=O)N2C)CC1,4.49%
14,CN(CC(=O)Nc1c(Cl)cccc1Cl)C(=O)c1ccc2nc[nH]c2c1,8.51%
15,Cc1ccc(-c2nc(-c3cccnc3)no2)c(C)c1,16.6%
16,Cn1cnnc1SCCC(=O)Nc1ccc(Cl)cc1,12.8%
17,COc1ccccc1OC(C)C(=O)Nc1ccc2c(c1)OCCO2 (centres unmarked),-0.875%
18,O=C(OCC(=O)N1CCCC1=O)C1COc2ccccc2O1 (centres unmarked),11.1%
19,Cc1ccccc1NC(=O)/C(C#N)=C/c1ccc(-c2ccc(Cl)c(C(=O)O)c2)o1,16.4%
20,Cc1cnc(NC(=O)c2ccc3c(c2)C(=O)N(Cc2cccnc2)C3=O)s1,0.185%
